Some of the results follow. Rule as the data show it: active = 3.2 or more and inactive = the rest. Most of these values are background signal.
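Also: displayed peptides selected on beads carrying the immobilized SH2 domain, with library peptides lacking any tyrosine serving as negative controls.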

The target of the first experiment is SHP2 C-SH2 domain E139D. Briefly: enrichment score (SH2-bound / input frequency) (ratio); bacterial display of known human phosphotyrosine sites (pTyr-Var adds point mutants) read by sequencing; higher = stronger binding; tyrosines were phosphorylated by kinases first. Conditions: peptide library: pTyr-Var.
In the case of WQQQSYLYSGI [CTNNB1_Y30_D32Y], the enrichment score is inactive: 1.02.

As for FSKTQYNQVPS [CXADR_Y318_YF], the enrichment score is inactive: 0.909.

Regarding MEVEQYIFVKC [CYBB_Y324_G322E], the enrichment score is inactive: 1.02.

For the molecule NFADPYRQLPF [CTNND2_Y503_Q507P_YF], the enrichment score was inactive: 0.905.

For SSEFHYVGGFF [CTSC_Y347_YF], the enrichment score was inactive: 0.892.

With FRQLQYCPSVE [CTNND2_Y508_YF], the enrichment score is inactive: 0.768.

Consider QTLTDYDIRFY [CSNK2A1_Y131], for which the enrichment score is inactive: 0.724.

Turning to HYEDGYPGGSD [CTNND1_Y221], the enrichment score is inactive: 0.615.

For the molecule RESFKYFPSSL [CXXC1_Y218_YF], the enrichment score is inactive: 1.4.

Regarding SEQNNYSRVAN [CWC22_Y797_R794Q], the enrichment score is inactive: 0.512.

As for SQAPGYSYTAA [CYCS_Y47_G42S], the enrichment score was inactive: 0.714.

Consider ISKKIYDTIHD [CTNNA3_Y614], for which the enrichment score was inactive: 0.977.

On to RWGQKHMTAVV [CYBA_Y72_Y72H], for which the enrichment score was active: 4.42.

Consider YSKTQYNQVPS [CXADR_Y318], for which the enrichment score is inactive: 0.624.

For LGRGKSSEVFE [CSNK2A1_Y50_Y50S], the enrichment score was inactive: 0.528.

As to NLMPAYFKCIQ [CYP21A2_Y190_YF], the enrichment score was inactive: 0.819.

Take WFISFYPQVIM [CTNS_Y143_S139F]: the enrichment score is inactive: 0.567.

In the case of GLAKEYTDPET [CSNK1G2_Y195_I196T], the enrichment score is inactive: 0.465.

For PPKFFDTRKLL [CYBB_Y41_Y41D], the enrichment score is inactive: 1.07.

In the next experiment the target is SHP2 C-SH2 domain wild-type. The experiment is described as above. Conditions: peptide library: pTyr-Var.
For the molecule WQQQSYLYSGI [CTNNB1_Y30_D32Y], the enrichment score is inactive: 1.01.

As to FSKTQYNQVPS [CXADR_Y318_YF], the enrichment score was inactive: 0.68.

On to MEVEQYIFVKC [CYBB_Y324_G322E], for which the enrichment score was inactive: 1.38.

As to NFADPYRQLPF [CTNND2_Y503_Q507P_YF], the enrichment score was inactive: 0.795.

With SSEFHYVGGFF [CTSC_Y347_YF], the enrichment score is inactive: 0.857.

As to FRQLQYCPSVE [CTNND2_Y508_YF], the enrichment score was inactive: 0.845.

Turning to QTLTDYDIRFY [CSNK2A1_Y131], the enrichment score is inactive: 0.639.

In the case of HYEDGYPGGSD [CTNND1_Y221], the enrichment score was inactive: 0.541.

In the case of RESFKYFPSSL [CXXC1_Y218_YF], the enrichment score is inactive: 1.34.

SEQNNYSRVAN [CWC22_Y797_R794Q]: the enrichment score is inactive: 1.4.

For SQAPGYSYTAA [CYCS_Y47_G42S], the enrichment score was inactive: 0.675.

As for ISKKIYDTIHD [CTNNA3_Y614], the enrichment score is inactive: 0.758.

As for RWGQKHMTAVV [CYBA_Y72_Y72H], the enrichment score was inactive: 3.03.

On to YSKTQYNQVPS [CXADR_Y318], for which the enrichment score was inactive: 0.603.

Consider LGRGKSSEVFE [CSNK2A1_Y50_Y50S], for which the enrichment score is inactive: 0.904.

For NLMPAYFKCIQ [CYP21A2_Y190_YF], the enrichment score is inactive: 0.879.

As for WFISFYPQVIM [CTNS_Y143_S139F], the enrichment score was inactive: 0.667.

For GLAKEYTDPET [CSNK1G2_Y195_I196T], the enrichment score was inactive: 0.615.

In the case of PPKFFDTRKLL [CYBB_Y41_Y41D], the enrichment score was inactive: 0.666.

For another experiment, the target named is SHP2 N-SH2 domain L43F. Described as above. Conditions: peptide library: pTyr-Var.
Regarding WQQQSYLYSGI [CTNNB1_Y30_D32Y], the enrichment score was inactive: 0.887.

With FSKTQYNQVPS [CXADR_Y318_YF], the enrichment score is inactive: 0.814.

For MEVEQYIFVKC [CYBB_Y324_G322E], the enrichment score was inactive: 1.1.

On to NFADPYRQLPF [CTNND2_Y503_Q507P_YF], for which the enrichment score was inactive: 0.644.

With SSEFHYVGGFF [CTSC_Y347_YF], the enrichment score is inactive: 0.913.

As to FRQLQYCPSVE [CTNND2_Y508_YF], the enrichment score is inactive: 0.873.

With QTLTDYDIRFY [CSNK2A1_Y131], the enrichment score was inactive: 0.684.

As for HYEDGYPGGSD [CTNND1_Y221], the enrichment score was inactive: 0.353.

Regarding RESFKYFPSSL [CXXC1_Y218_YF], the enrichment score is inactive: 0.647.

With SEQNNYSRVAN [CWC22_Y797_R794Q], the enrichment score was inactive: 0.416.

In the case of SQAPGYSYTAA [CYCS_Y47_G42S], the enrichment score is inactive: 0.781.

For ISKKIYDTIHD [CTNNA3_Y614], the enrichment score is inactive: 0.55.

With RWGQKHMTAVV [CYBA_Y72_Y72H], the enrichment score is active: 3.66.

As for YSKTQYNQVPS [CXADR_Y318], the enrichment score was inactive: 0.562.

In the case of LGRGKSSEVFE [CSNK2A1_Y50_Y50S], the enrichment score was inactive: 0.397.

For the molecule NLMPAYFKCIQ [CYP21A2_Y190_YF], the enrichment score is inactive: 0.947.

Consider WFISFYPQVIM [CTNS_Y143_S139F], for which the enrichment score was inactive: 0.623.

As to GLAKEYTDPET [CSNK1G2_Y195_I196T], the enrichment score was inactive: 0.342.

Turning to PPKFFDTRKLL [CYBB_Y41_Y41D], the enrichment score was inactive: 1.15.

For another experiment, the target named is SHP2 N-SH2 domain T42A. The experiment is described as above. The settings on record: peptide library: pTyr-Var.
Take WQQQSYLYSGI [CTNNB1_Y30_D32Y]: the enrichment score is inactive: 1.06.

For the molecule FSKTQYNQVPS [CXADR_Y318_YF], the enrichment score was inactive: 0.665.

Turning to MEVEQYIFVKC [CYBB_Y324_G322E], the enrichment score was inactive: 1.03.

For the molecule NFADPYRQLPF [CTNND2_Y503_Q507P_YF], the enrichment score is inactive: 0.622.

Consider SSEFHYVGGFF [CTSC_Y347_YF], for which the enrichment score was inactive: 0.724.

Regarding FRQLQYCPSVE [CTNND2_Y508_YF], the enrichment score is inactive: 0.93.

With QTLTDYDIRFY [CSNK2A1_Y131], the enrichment score was inactive: 0.718.

HYEDGYPGGSD [CTNND1_Y221]: the enrichment score was inactive: 0.766.

RESFKYFPSSL [CXXC1_Y218_YF]: the enrichment score is inactive: 1.61.

As for SEQNNYSRVAN [CWC22_Y797_R794Q], the enrichment score was inactive: 0.442.

On to SQAPGYSYTAA [CYCS_Y47_G42S], for which the enrichment score was inactive: 0.423.

For ISKKIYDTIHD [CTNNA3_Y614], the enrichment score was inactive: 0.772.

Take RWGQKHMTAVV [CYBA_Y72_Y72H]: the enrichment score is active: 3.45.

As for YSKTQYNQVPS [CXADR_Y318], the enrichment score was inactive: 0.55.

Consider LGRGKSSEVFE [CSNK2A1_Y50_Y50S], for which the enrichment score was inactive: 0.932.

On to NLMPAYFKCIQ [CYP21A2_Y190_YF], for which the enrichment score is inactive: 0.805.

Regarding WFISFYPQVIM [CTNS_Y143_S139F], the enrichment score is inactive: 0.619.

Turning to GLAKEYTDPET [CSNK1G2_Y195_I196T], the enrichment score is inactive: 0.574.

Consider PPKFFDTRKLL [CYBB_Y41_Y41D], for which the enrichment score is inactive: 1.3.

A further experiment has as its target SHP2 N-SH2 domain T52S. The description is as above. Conditions: peptide library: pTyr-Var.
Take WQQQSYLYSGI [CTNNB1_Y30_D32Y]: the enrichment score is inactive: 1.07.

On to FSKTQYNQVPS [CXADR_Y318_YF], for which the enrichment score is inactive: 0.615.

Turning to MEVEQYIFVKC [CYBB_Y324_G322E], the enrichment score was inactive: 0.878.

With NFADPYRQLPF [CTNND2_Y503_Q507P_YF], the enrichment score is inactive: 0.787.

Take SSEFHYVGGFF [CTSC_Y347_YF]: the enrichment score was inactive: 1.03.

Turning to FRQLQYCPSVE [CTNND2_Y508_YF], the enrichment score was inactive: 0.809.

Turning to QTLTDYDIRFY [CSNK2A1_Y131], the enrichment score was inactive: 0.714.

Take HYEDGYPGGSD [CTNND1_Y221]: the enrichment score is inactive: 0.525.

Take RESFKYFPSSL [CXXC1_Y218_YF]: the enrichment score was inactive: 1.13.

As to SEQNNYSRVAN [CWC22_Y797_R794Q], the enrichment score was inactive: 0.551.

Regarding SQAPGYSYTAA [CYCS_Y47_G42S], the enrichment score was inactive: 0.794.

For ISKKIYDTIHD [CTNNA3_Y614], the enrichment score was inactive: 0.749.

In the case of RWGQKHMTAVV [CYBA_Y72_Y72H], the enrichment score was active: 3.27.

Turning to YSKTQYNQVPS [CXADR_Y318], the enrichment score was inactive: 0.558.

Consider LGRGKSSEVFE [CSNK2A1_Y50_Y50S], for which the enrichment score is inactive: 0.841.

As to NLMPAYFKCIQ [CYP21A2_Y190_YF], the enrichment score was inactive: 0.612.

In the case of WFISFYPQVIM [CTNS_Y143_S139F], the enrichment score was inactive: 0.6.

For the molecule GLAKEYTDPET [CSNK1G2_Y195_I196T], the enrichment score is inactive: 0.494.

On to PPKFFDTRKLL [CYBB_Y41_Y41D], for which the enrichment score was inactive: 0.911.

In a further experiment the target is SHP2 N-SH2 domain wild-type. The description is as above. Conditions: peptide library: pTyr-Var.
On to WQQQSYLYSGI [CTNNB1_Y30_D32Y], for which the enrichment score was inactive: 0.975.

For the molecule FSKTQYNQVPS [CXADR_Y318_YF], the enrichment score was inactive: 1.06.

Take MEVEQYIFVKC [CYBB_Y324_G322E]: the enrichment score is inactive: 1.48.

Regarding NFADPYRQLPF [CTNND2_Y503_Q507P_YF], the enrichment score was inactive: 0.826.

As for SSEFHYVGGFF [CTSC_Y347_YF], the enrichment score is inactive: 0.988.

FRQLQYCPSVE [CTNND2_Y508_YF]: the enrichment score was inactive: 1.17.

QTLTDYDIRFY [CSNK2A1_Y131]: the enrichment score was inactive: 0.726.

As for HYEDGYPGGSD [CTNND1_Y221], the enrichment score was inactive: 0.565.

RESFKYFPSSL [CXXC1_Y218_YF]: the enrichment score is inactive: 0.961.

Regarding SEQNNYSRVAN [CWC22_Y797_R794Q], the enrichment score is inactive: 0.469.

As for SQAPGYSYTAA [CYCS_Y47_G42S], the enrichment score is inactive: 0.652.

In the case of ISKKIYDTIHD [CTNNA3_Y614], the enrichment score was inactive: 0.733.

As to RWGQKHMTAVV [CYBA_Y72_Y72H], the enrichment score was inactive: 3.08.

Regarding YSKTQYNQVPS [CXADR_Y318], the enrichment score was inactive: 0.601.

On to LGRGKSSEVFE [CSNK2A1_Y50_Y50S], for which the enrichment score was inactive: 0.47.

As for NLMPAYFKCIQ [CYP21A2_Y190_YF], the enrichment score is inactive: 1.25.

Regarding WFISFYPQVIM [CTNS_Y143_S139F], the enrichment score was inactive: 1.02.

Take GLAKEYTDPET [CSNK1G2_Y195_I196T]: the enrichment score is inactive: 0.485.

For the molecule PPKFFDTRKLL [CYBB_Y41_Y41D], the enrichment score was inactive: 0.804.
